# In patent publication US20100184652:
# T1: F213 peptide (14-residue Abi1 peptide with tyrosine to phenylalanine replacement at position 213)
# T1 chain: VKPPTVPNDFMTSP
# T2: Y213 peptide (14-residue Abi1 peptide containing nonphosphorylated tyrosine 213)
# T2 chain: VKPPTVPNDYMTSP
# T3: biotinylated model substrate peptide GGEAIYAAPFKK
# T3 chain: GGEAIYAAPFKK
# T4: pY213 peptide (14-residue Abi1 peptide containing phosphorylated tyrosine 213)
# T4 chain: VKPPTVPNDYMTSP
# Key:
# [1] = target: T1, F213 peptide (14-residue Abi1 peptide …)
# [2] = target: T2, Y213 peptide (14-residue Abi1 peptide …)
# [3] = target: T3, biotinylated model substrate peptide …
# [4] = target: T4, pY213 peptide (14-residue Abi1 peptide …)
protein,measurement,setting,value
"His-tagged, uncapped active c-Abl, E46 through C-terminus (isoform 1b) (protein) EALQRPVASDFEPQGLSEAARWNSKENLLAGPSE[left out - about 60 residues]LEKHSWYHGPVSRNAAEYLLSSGINGSFLVRESESSPGQRSISLRYEGRVYHYRINTASDGKLYVSSESRFNTLAELVHHHSTVADGLITTLHYPAPKRNKPTVYGVSPNYDKWEMERTDITMKHKLGGGQYGEVYEGVWKKYSLTVAVKTLKEDTMEVEEFLKEAAVMKEIKHPNLVQLLGVCTREPPFYIITEFMTYGNLLDYLRECNRQEVNAVVLLYMATQISSAMEYLEKKNFIHRDLAARNCLVGENHLVKVADFGLSRLMTGDTYTAHAGAKFPIKWTAPESLAYNKFSIKSDVWAFGVLLWEIATYGMSPYPGIDLSQVYELLEKDYRMERPEGCPEKVYELMRACWQWNPSDRPSFAEIHQAFETMFQESSISDEVEKELGKQGVRGAVSTLLQAPELPTKTRTSRRAAEHRDTTDVPEMPHSKGQGESDPLDHEPAVSPLLPRKERGPPEGGLNEDERLLPKDKKTNLFSALIKKKKKTAPTPPKRSSSFREMDGQPERRGAGEEEGRDISNGALAFTPLDTADPAKSPKPSNGAGVPNGALRESGGSGFRSPHLWKKSSTLTSSRLATGEEEGGGSSSKRFLRSCSASCVPHGAKDTEWRSVTLPRDLQSTGRQFDSSTFGGHKSEKPALPRKRAGENRSDQVTRGTVTPPPRLVKKNEEAADEVFKDIMESSPGSSPPNLTPKPLRRQVTVAPASGLPHKEEAGKGSALGTPAAAEPVTPTSKAGSGAPGGTSKGPAEESRVRRHKHSSESPGRDKGKLSRLKPAPPPPPAASAGKAGGKPSQSPSQEAAGEAVLGAKTKATSLVDAVNSDAAKPSQPGEGLKKPVLPATPKPQSAKPSGTPISPAPVPSTLPSASSALAGDQPSSTAFIPLISTRVSLRKTRQPPERIASGAITKGVVLDSTEALCLAISRNSEQMASHSAVLEAGKNLYTFCVSYVDSIQQMRNKFAFREAINKLENNLRELQICPATAGSGPAATQDFSKLLSSVKEISDIVQR",Fold Change (PEP) of Vmax with F213 at 2 mM,[1],1.03 fold
same,Km (µM) of the substrate peptide with F213 at 2 mM,[1],25.8 µM
same,Vmax (pmol/min-µg) of c-Abl with F213 at 2 mM,[1],163 pmol/min-µg
same,Fold Change (PEP) of Vmax with Y213 at 0.1 mM,[2],0.71 fold
same,Fold Change (PEP) of Vmax with Y213 at 0.25 mM,[2],0.55 fold
same,Fold Change (PEP) of Vmax with Y213 at 2.0 mM,[2],0.018 fold
same,Km (µM) of the substrate peptide with Y213 at 0.1 mM,[2],14.9 µM
same,Km (µM) of the substrate peptide with Y213 at 0.25 mM,[2],16.5 µM
same,Km (µM) of the substrate peptide with Y213 at 2.0 mM,[2],16.3 µM
same,Vmax (pmol/min-µg) of c-Abl with Y213 at 0.1 mM,[2],112 pmol/min-µg
same,Vmax (pmol/min-µg) of c-Abl with Y213 at 0.25 mM,[2],86.7 pmol/min-µg
same,Vmax (pmol/min-µg) of c-Abl with Y213 at 2.0 mM,[2],2.9 pmol/min-µg
same,"Fold Change (PEP) of Vmax, substrate peptide alone",[3],1 fold
same,Km (µM) of the substrate peptide,[3],21.2 µM
same,"Vmax (pmol/min-µg), substrate peptide alone",[3],158 pmol/min-µg
same,Fold Change (PEP) of Vmax with pY213 at 2 mM,[4],0.62 fold
same,Km (µM) of the substrate peptide with pY213 at 2 mM,[4],24.9 µM
same,Vmax (pmol/min-µg) of c-Abl with pY213 at 2 mM,[4],97.5 pmol/min-µg
